Source: publication PMC12040169 (PLOS Biology, 2025)
The list shows a part of the results.

What follows are compounds tested on T1, C. trachomatis L2/434/Bu expressing GFP (CTL2-GFP). Settings: total inclusion area; 28.5 h, 10 µM; inhibitor.
T1 construct: L2/434/Bu GFP intracellular growth in HeLa cells
Parameters: species or system HeLa; C. trachomatis total inclusion area by high-content imaging, normalised to DMSO
Procedure, shortened: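 Post-fluorescence-read fixation, DNA staining with Hoechst and high-content imaging; GFP inclusion area and number per well, and nuclei counts, used as proxies for bacterial growth and host viability.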

Row | SMILES | % of control remaining
1 | Cc1cc(NC(=O)c2nn3c(C(F)(F)F)cc(-c4ccccc4)nc3c2Cl)nn1CC(=O)N1CCOCC1 [CBK268209] | 89.1588
2 | O=C(NC[C@H]1O[C@@H](CC(=O)N2CCN(c3ccccc3)CC2)[C@H](O)[C@@H]1O)c1ccccc1 [CBK288920] | 85.9033
3 | COc1ccc(CN(CCN(C)C)C(=O)NCc2ccc(Cl)cc2)cc1OC [CBK159303] | 95.5787
4 | O=C(NCCCN1CCCC1)Nc1ccccc1[N+](=O)[O-] [CBK267959] | 102.919
5 | O=C(CCn1cccn1)NC(Cc1ccsc1)c1cccnc1 (centres unmarked) [CBK285393] | 101.451
6 | Cc1cccc(C(=O)Nc2cccc(OCC(=O)O)c2)c1 [CBK268599] | 121.4
7 | CCC(=O)N1CCCc2cc(C(O)CN3CCCC(C)C3)ccc21 (centres unmarked) [CBK283049] | 108.876
8 | CCCNC(=O)CN1CCC(NC(=O)Cn2cc(Br)ccc2=O)CC1 [CBK305665] | 62.1442
9 | OC(CN1CCN(C(c2ccccc2)c2ccccc2)CC1)Cn1c2ccccc2c2ccccc21 (centres unmarked) [CBK262730] | 75.7657
10 | O=C(O)CC1SC(Nc2cccc(Cl)c2)=NC1=O (centres unmarked) [CBK131683] | 85.3439
11 | O=C1N(Cc2cccc3ccccc23)c2ccccc2C1(c1ccc(O)cc1)c1ccc(O)cc1 [CBK261410] | 65.085
12 | O=C(O)CCN1C(=O)c2ccc(Oc3ccc(NC(=O)c4ccc(Cl)c(Cl)c4)cc3)cc2C1=O [CBK267400] | 89.6341
13 | O=C(N[C@@H](Cn1cc(Cl)c(=O)[nH]c1=O)C(=O)O)C1CCCC1 [CBK289658] | 96.8804
14 | Cc1nc2c(c(=O)[nH]1)CCN(Cc1cccc(Oc3ccccc3)c1)C2 [CBK283989] | 95.1335
15 | CC(=O)N1CCc2c([nH]c3ccccc23)[C@@]12CCN(Cc1ccc(F)cc1)C2 [CBK074955] | 92.2944
16 | Cc1c(CN2CCC3(CC2)CC(c2ccccc2)CN(C)C3)cnn1C (centres unmarked) [CBK306666] | 66.9057
17 | Cc1ccc(N(C(C)C(=O)Nc2ccccc2C(F)(F)F)S(C)(=O)=O)cc1 (centres unmarked) [CBK268796] | 71.7842
18 | O=C(NCc1ccncc1)c1ncoc1-c1ccc(F)cc1 [CBK282354] | 80.8481
19 | CCn1c(=O)n(CC(=O)NCc2ccccc2F)c2cccnc21 [CBK283890] | 76.5153
20 | COc1ccccc1OCCOc1c(Cl)cc(/C=C2\SC(=S)NC2=O)cc1Cl [CBK264848] | 100.109
21 | CCn1cnc2sc(-c3ccccc3)cc2c1=O [CBK287952] | 70.2033
22 | C/C(=N\NC(=O)CCC(=O)Nc1ccc(I)cc1)c1ccc(O)cc1O [CBK261971] | 77.4742
23 | CCn1c(N2CCC(C(=O)NC(C)C)CC2)nc2ccccc21 [CBK283982] | 73.3336
24 | Cc1csc2[nH]c(C(C)(C)C)c[n+]12 [CBK025384B] | 52.1173
25 | OCCN(Cc1cccs1)Cc1c[nH]nc1-c1cccs1 [CBK282599] | 91.7158

Row | SMILES | % of control remaining
26 | N#CC1C(=S)NC2=C(CCCC2)C12CCCCC2 (centres unmarked) [CBK288493] | 108.252
27 | O=C(NCc1nnc(-c2cccs2)o1)c1cccc(F)c1F [CBK284634] | 53.2172
28 | COc1cc(/C=C/CN2CCC(C(=O)NC(C)c3ccc(F)cc3)CC2)ccc1OC(C)=O (centres unmarked) [CBK148061] | 109.301
29 | Cc1ccc(-c2nnc(CN3C(=O)C4(CC(=O)N(C)C4=O)c4cc(F)ccc43)o2)cc1 (centres unmarked) [CBK075453] | 107.269
30 | CCCCN1C(=S)SC(C)(C)C1N(O)C(=O)C1CCCCC1 (centres unmarked) [CBK008915] | 84.079
31 | CC(N)(Cc1ccc(Oc2ncc(C(F)(F)F)cc2Cl)cc1)C(=O)O (centres unmarked) [CBK161647] | 93.3554
32 | OCCN1CCN(CCCc2ccccc2)CC1 [CBK261872] | 94.6917
33 | O=[N+]([O-])c1ccc(Oc2cccc(Cl)c2Cl)c(C(F)(F)F)c1 [CBK002594] | 41.471
34 | CO/N=C(\C(=O)O)c1cn2cccnc2n1 [CBK262252] | 95.3508
35 | Cc1cc(C)c(S(=O)(=O)Nc2nnc(C)s2)c(C)c1 [CBK045497] | 79.5319
36 | COc1cc(C(=O)N2CCCC3(CC(=O)c4ccc(C)cc4O3)C2)cc(OC)c1C (centres unmarked) [CBK168239] | 97.6053
37 | COc1ccc(C2NCCc3c2[nH]c2ccccc32)cc1CSc1nc2ccccc2s1 (centres unmarked) [CBK264303C] | 65.3216
38 | Cc1nnc(SCc2nnnn2-c2ccccc2)nc1O [CBK266302] | 128.179
39 | Cc1nn(C)c2c1c(=O)n(C)c(=O)n2C [CBK026140] | 60.6155
40 | Cc1cc(OC(=O)C2CCC(CNC(=O)OC(C)(C)C)CC2)c2c3c(c(=O)oc2c1)CCC3 (centres unmarked) [CBK083583] | 103.446
41 | Clc1ccccc1-c1nccnc1OCCOc1ccccc1 [CBK107011] | 92.0813
42 | COc1cccc(C(O)CN2CCC3(CC2)CC(O)c2cc(C)ccc2O3)c1 (centres unmarked) [CBK286338] | 116.154
43 | Cc1ccc(OCC(=O)NC(=S)Nc2ccc(Cl)c(-c3nc4ncccc4o3)c2)cc1 [CBK263930] | 88.9565
44 | COc1cc2c(c(OC)c1OC)C1(CCN(Cc3ccc(S(C)(=O)=O)cc3)CC1)NC(=O)C2 [CBK040014] | 95.3801
45 | Cc1cc(C)n(CCCn2cncc2-c2cnn(C)c2)n1 [CBK281771] | 79.7476
46 | Cc1ccc(S(=O)(=O)NCCCC(=O)Oc2cc3oc(=O)c4c(c3cc2Cl)CCC4)cc1 [CBK264967] | 104.115
47 | COc1ccc(Br)cc1CNCCCN1CCOCC1 [CBK278208C] | 120.047
48 | O=S(=O)(c1ccc(Cl)c(S(=O)(=O)N2CCOCC2)c1)c1ccc(Cl)c(S(=O)(=O)N2CCOCC2)c1 [CBK261369] | 91.3628
49 | COc1ccc(C(NC(=O)NNC(=O)CCC(=O)c2ccc(F)cc2)c2ccccc2C)cn1 (centres unmarked) [CBK083659] | 123.252
50 | COc1cc(-c2cncc(N[C@@H](C)c3ccccc3)n2)cc(OC)c1OC [CBK065551] | 113.396
